Measured values published in PubChem BioAssay (NCATS).
Values joined by “and” are separate entries in the source; they are usually repeats but may differ in a detail not shown here. Equal entries are not always repeated. Inconclusive means that the source gave no clear call. Such entries were picked first, then a sample of the others. Where a call stands in place of a potency, no number is given. For part of these data: Where the call is inconclusive, the potency comes from a doubtful curve fit. Active and inactive are the calls of the source. The call rests on the fitted dose curve; in most records, active means well fitted curve in the direction sought with a large enough effect; inconclusive means small, poorly fitted or top-dose-only effect, or another doubt; inactive means no such curve, though single readings can be large; an effect the other way counts as inactive or inconclusive.

Experiments:
[1] = Primary qHTS for inhibitors of nuclear receptor binding SET domain protein 2 (NSD2) in an isogenic RCH-ACV NSD2 p.E1099K mutant (9B) (AID 1645876); conditions: activity change, negative = viability loss: at 44.9 µM (top of the series) unless noted; further: nearly all actives have a fitted effect of over 70% in size
[2] = Primary qHTS for inhibitors of nuclear receptor binding SET domain protein 2 (NSD2) in an RCH-ACV wild type WT cells (2C) (AID 1645877); conditions: activity change, negative = cell killing: at 44.9 µM (top of the series) unless noted; further: nearly all actives have a fitted effect of over 70% in size
C33A = assay: Primary qHTS to identify gynecologic anti-cancer compounds using libraries of approved drugs and bioactive compounds (AID 1345084); conditions: Gynecologic cancer cell panel viability, ATPlite luminescence, 48 h; series mostly up to 57.5 µM; further: nearly all actives have a fitted effect of over 55% in size
Procedure, shortened: (§1)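 Luminescence from the ATPlite ATP-monitoring reagent indicates viable cell number; lower signal means cytotoxicity. Cells received compound 16 h after seeding and were exposed for 48 h across five concentrations.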

Es-2 = assay: as above; conditions: Gynecologic cancer cell panel viability, ATPlite luminescence, 48 h; series mostly up to 57.5 µM
Procedure, shortened: as §1

PA-1 = assay: as above; conditions: Gynecologic cancer cell panel viability, ATPlite luminescence, 48 h; series mostly up to 57.5 µM
Procedure, shortened: as §1

[3] = test system: Zika virus NS2B-NS3 protease (unlinked complex); assay: Primary screen GU Rhodamine qHTS for Zika virus inhibitors: Unlinked NS2B-NS3 protease assay (AID 1347159); conditions: Recombinant ZIKV NS2B-NS3 protease, Rhodamine110 substrate fluorescence; activity change, negative = inhibition: at 107 µM (top of the series); further: nearly all actives have a fitted effect of over 60% in size
Procedure, shortened: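 Buffer 10 mM Tris-HCl pH 8.0, 0.01% Tween 20. Unlinked protease 25 nM; compound preincubation 15 min, RT, protected from light. Substrate Rhod110, 1.5 microM; ~15% conversion in 15 min.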

[4] = Primary fluorescence-based thiol-reactive (MSTI) qHTS assay for identification of artifact compounds. (AID 1845221);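 further: thiol-reactive compounds lower the probe fluorescence signal; nearly all actives have a fitted effect of over 65% in size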
Procedure, shortened: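 Compounds were incubated 1 h at room temperature in the dark with the MSTI probe (4 uM) in PBS pH 7.4, 2% DMSO. Signals were normalized between Acetyl-MSTI and MSTI.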

Hek293T = assay: Primary qHTS to identify gynecologic anti-cancer compounds using libraries of approved drugs and bioactive compounds (AID 1345084); conditions: Gynecologic cancer cell panel viability, ATPlite luminescence, 48 h, control line for the selectivity index; series mostly up to 57.5 µM; further: nearly all actives have a fitted effect of over 55% in size
Procedure, shortened: as §1

SKOV3 = assay: as above; conditions: Gynecologic cancer cell panel viability, ATPlite luminescence, 48 h; series mostly up to 57.5 µM
Procedure, shortened: as §1

[5] = test system: Zika virus NS2B-NS3 protease (linked construct); assay: Primary screen NINDS Rhodamine qHTS for Zika virus inhibitors (AID 1347160); further: nearly all actives have a fitted effect of over 55% in size
Procedure, shortened: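 Aprotinin served as in-plate control. Conditions: 25 nM linked NS2B-NS3, pH 8.0 Tris buffer, titrated compounds, 15 min preincubation and 15 min reaction with 1.5 microM Rhod110 substrate at room temperature.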

CAOV3 = assay: Primary qHTS to identify gynecologic anti-cancer compounds using libraries of approved drugs and bioactive compounds (AID 1345084); conditions: Gynecologic cancer cell panel viability, ATPlite luminescence, 48 h; series mostly up to 57.5 µM; further: nearly all actives have a fitted effect of over 55% in size
Procedure, shortened: as §1

CASKI = assay: as above; conditions: Gynecologic cancer cell panel viability, ATPlite luminescence, 48 h; series mostly up to 57.5 µM
Procedure, shortened: as §1

JEG-3 = assay: as above; conditions: Gynecologic cancer cell panel viability, ATPlite luminescence, 48 h; series mostly up to 57.5 µM
Procedure, shortened: as §1

Tov-21-G = assay: as above; conditions: Gynecologic cancer cell panel viability, ATPlite luminescence, 48 h; series mostly up to 57.5 µM
Procedure, shortened: as §1

HeLa = assay: as above; conditions: Gynecologic cancer cell panel viability, ATPlite luminescence, 48 h; series mostly up to 57.5 µM
Procedure, shortened: as §1

OV90 = assay: as above; conditions: Gynecologic cancer cell panel viability, ATPlite luminescence, 48 h; series mostly up to 57.5 µM
Procedure, shortened: as §1

[6] = P-glycoprotein substrates identified in KB-8-5-11 adenocarcinoma cell line, qHTS therapeutic library screen (AID 1346987); conditions: activity change, negative = cytotoxicity: at 44.5 µM (top of the series); further: nearly all actives have a fitted effect of over 65% in size
Procedure, shortened: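 In this qHTS, P-gp-rich KB-8-5-11 cells received library compounds across a concentration range. Viability was quantified by luminescence after 72 h at 37 degree C.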

[7] = Primary qHTS for small molecule stabilizers of the endoplasmic reticulum resident proteome: Secreted ER Calcium Modulated Protein (SERCaMP) assay (AID 1508630); conditions: SH-SY5Y GLuc-SERCaMP (Gaussia luciferase released on ER calcium loss) secretion, thapsigargin, luminescence; activity change, negative = inhibition: at 38.4 µM (top of the series) unless noted
Procedure, shortened: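 The SH-SY5Y reporter protocol was run at 3 concentrations up to 38.3 uM (primary) or 11 concentrations (follow-up): 16 h compound, 100 nM thapsigargin for 4 h, then extracellular luciferase luminescence.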

[8] = Primary redox qHTS assay for identification of artifact compounds. (AID 1845223)
Procedure, shortened: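 Redox-cycling detection via DTT (250 uM final) oxidation coupled to Amplex Red (25 uM)/HRP (250 mU/mL) in HBSS. 15 min preincubation plus 30 min after DTT, room temperature. Ex/Em 525/598 nm; 4-parameter Hill fit against DMSO and 10 uM DA3003.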

Tov112D = assay: Primary qHTS to identify gynecologic anti-cancer compounds using libraries of approved drugs and bioactive compounds (AID 1345084); conditions: Gynecologic cancer cell panel viability, ATPlite luminescence, 48 h; series mostly up to 57.5 µM; further: nearly all actives have a fitted effect of over 55% in size
Procedure, shortened: as §1
Potency means the concentration at half of the fitted maximal effect; tags describe the fitted curve by direction and shape.

For `C/C=C(\C)C(=O)OC1C(C)C2(O)C3C=C(C)C(=O)C3CC(CO)=CC2C2C(C)(C)C12OC(C)=O` (stereo unspecified), the Potency [1] was inconclusive: 0.0355 µM [inhibitor, full curve], the Potency [2] was inconclusive: 0.632 µM [inhibitor, full curve, poor fit] and the Potency (C33A) was inconclusive: 0.199 µM [rising, full curve]. The Potency (Es-2) was active: 0.112 µM and the Potency (PA-1) was inconclusive: 0.794 µM [cytotoxic, full curve, poor fit].
With `COC1OC(OC)C(O)(CCC2(C)C(C)CCC3(C)C2CC(O)C(O)C32CO2)C1O` (stereo unspecified) the Potency [3] was “inactive”, the Potency [4] was inconclusive: 11.6 µM [inhibitor, partial curve, poor fit] and the Potency (C33A) was “inactive”. The Potency (Hek293T) was “inactive”, the Potency (PA-1) was “inactive” and the Potency (SKOV3) was “inactive”.
In the case of `CC(=O)OC1C(O)/C(C)=C\C2C(OC(=O)c3ccccc3)C(C)CC2(OC(C)=O)C(OC(C)=O)C(C)/C=C/C(C)(C)C1OC(C)=O` (stereo unspecified), the Potency [3] is reported as inconclusive: 14.1 µM [inhibitor, partial curve], the Potency [5] is reported as “inactive” and the Potency [1] is reported as “inactive”. For the same molecule, the Potency [2] was “inactive”, the Potency (C33A) was “inactive” and the Potency (CAOV3) was “inactive”.
With `Cc1ccc(Sc2cncc3sc(C(N)=O)cc23)cc1` the Potency [2] was inconclusive: 0.409 µM [inhibitor, full curve], the Potency (C33A) was inconclusive: 7.94 µM [rising, partial curve, poor fit] and the Potency (CASKI) was inconclusive: 17.8 µM [rising, partial curve, poor fit]. The Potency (JEG-3) was inconclusive: 1.58 µM [rising, partial curve] and the Potency (Tov-21-G) was inconclusive: 4.47 µM [rising, partial curve, poor fit].
For `CC(=O)OC12CC(C)C(OC(=O)c3ccccc3)C1/C=C(/C)C(OC(=O)c1ccccc1)CC(=O)C(C)(C)/C=C/C(C)C2=O` (stereo unspecified), the Potency [3] was active: 6.31 µM, the Potency [5] was active: 7.08 µM and the Potency [1] was inconclusive: 1.08 µM [inhibitor, full curve]. The Potency [2] was inconclusive: 1.21 µM [inhibitor, full curve], the Potency (C33A) was “inactive” and the Potency (Es-2) was active: 2.82 µM. For the same molecule, the Potency (JEG-3) was inconclusive: 12.6 µM [cytotoxic, single point].
In the case of `C#C[C@]1(OC(C)=O)CC[C@H]2[C@@H]3CCC4=C[C@@H](OC(C)=O)CC[C@@H]4[C@H]3CC[C@@]21C`, the Potency [3] is reported as “inactive”, the Potency [1] is reported as inconclusive: 26.6 µM [inhibitor, single point] and inconclusive: 20.5 µM [inhibitor, partial curve] and the Potency [2] is reported as inconclusive: 20.5 µM [inhibitor, partial curve]. For the same molecule, the Potency (C33A) was “inactive”, the Potency (HeLa) was inconclusive: 12.6 µM [cytotoxic, partial curve] and inconclusive: 25.1 µM [cytotoxic, single point] and the Potency (Hek293T) was inconclusive: 28.2 µM [cytotoxic, single point]. The Potency (OV90) was “inactive”.
In the case of `O=C1NC(=O)C(c2ccccc2)(c2ccccc2)N1`, the Potency (C33A) is reported as “inactive” and the Potency (CASKI) is reported as “inactive”.
In the case of `Nc1nc(COC(=O)c2ccc([N+](=O)[O-])cc2)nc(Nc2ccccc2)n1`, the Potency [5] is reported as inconclusive: 39.8 µM [inhibitor, single point], the Potency [4] is reported as inconclusive: 1.5 µM [inhibitor, full curve] and the Potency (C33A) is reported as “inactive”. For the same molecule, the Potency (CAOV3) was inconclusive: 22.4 µM [rising, single point].
In the case of `OC[C@H]1O[C@@H](OCCc2ccc(O)cc2)[C@H](O[C@@H]2OC[C@](O)(CO)[C@H]2O)[C@@H](O)[C@@H]1O`, the Potency [1] is reported as “inactive”, the Potency [2] is reported as “inactive” and the Potency [4] is reported as inconclusive: 13 µM [inhibitor, partial curve]. The Potency (C33A) was “inactive” and the Potency (Hek293T) was “inactive”.
In the case of `Cc1ncc(Cl)cc1NCc1ccc(C(=O)NC(CC2CCCC2)C(=O)NC2CC2)s1` (stereo unspecified), the Potency [6] is reported as inconclusive: 10.3 µM [inhibitor, partial curve, poor fit], the Potency [1] is reported as inconclusive: 20.9 µM [inhibitor, partial curve] and the Potency [2] is reported as active: 14.8 µM. The Potency [4] was “inactive”, the Potency (C33A) was “inactive” and the Potency (Hek293T) was “inactive”. The Potency (SKOV3) was inconclusive: 0.316 µM [rising, partial curve, poor fit].
With `NC(=O)CC[C@@H]1NC(=O)[C@H](Cc2ccccc2)NC(=O)[C@H](Cc2ccc(O)cc2)NC(=O)CCSSC[C@@H](C(=O)N2CCC[C@H]2C(=O)N[C@@H](CCCN=C(N)N)C(=O)NCC(N)=O)NC(=O)[C@H](CC(N)=O)NC1=O` the Potency [7] was inconclusive: 31.6 µM [inhibitor, partial curve, poor fit], the Potency (C33A) was “inactive” and the Potency (Hek293T) was “inactive”. For the same molecule, the Potency (SKOV3) was “inactive” and the Potency (Tov-21-G) was “inactive”.
With `CO[C@@H]1[C@@H](O[C@H]2O[C@@H](C)[C@H](O[C@@H]3C[C@](C)(O)[C@H](O)[C@@H](C)O3)[C@@H](N(C)C)[C@@H]2O)[C@@H](CC=O)C[C@@H](C)[C@@H](O[C@H]2CC[C@H](N(C)C)[C@H](C)O2)/C=C/C=C/C[C@@H](C)OC(=O)C[C@H]1O` the Potency [3] was “inactive”, the Potency [2] was inconclusive: 10.3 µM [inhibitor, partial curve] and the Potency [8] was inconclusive: 1.89 µM [activator, partial curve, poor fit]. For the same molecule, the Potency (C33A) was “inactive”, the Potency (CAOV3) was “inactive” and the Potency (Tov-21-G) was “inactive”. For the same molecule, the Potency (Tov112D) was “inactive”.
